Data published in the supplement of paper PMC8728848.
The other results are listed elsewhere or left out.

Experiments:
Assay in all cases: glycan array binding signal (z-score within array); higher = stronger binding
Settings in all cases: glycan notation: IUPAC condensed, linker removed
[1] = target: Gal(a1-3)Gal
Method in brief: (§1)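 Columns mapping to the same glycan were averaged after glycan names were converted to IUPAC-condensed notation. The data come from 3228 arrays in the Consortium for Functional Glycomics database, limited to those with an available protein sequence. Binding is reported as a within-array Z-score averaged across arrays of one protein sequence and across linkers.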

[2] = target: Gal(a1-3)Gal(b1-3)GlcNAc
Method in brief: as §1

[3] = target: Gal(a1-3)Gal(b1-3)GlcNAc(b1-2)Man
Method in brief: as §1

[4] = target: Gal(a1-3)Gal(b1-3)GlcNAc(b1-2)Man(a1-3)[Gal(a1-3)Gal(b1-3)GlcNAc(b1-2)Man(a1-6)]Man(b1-4)GlcNAc(b1-4)GlcNAc
Method in brief: as §1

[5] = target: Gal(a1-3)Gal(b1-3)GlcNAc(b1-3)GalNAc
Method in brief: as §1

[6] = target: Gal(a1-3)Gal(b1-3)GlcNAc(b1-6)GalNAc
Method in brief: as §1

[7] = target: Gal(a1-3)Gal(b1-3)[Fuc(a1-4)]GlcNAc(b1-2)Man(a1-3)[Gal(a1-3)Gal(b1-3)[Fuc(a1-4)]GlcNAc(b1-2)Man(a1-6)]Man(b1-4)GlcNAc(b1-4)GlcNAc
Method in brief: as §1

[8] = target: Gal(a1-3)Gal(b1-4)Glc
Method in brief: as §1

[9] = target: Gal(a1-3)Gal(b1-4)GlcNAc
Method in brief: as §1

[10] = target: Gal(a1-3)Gal(b1-4)GlcNAc(b1-2)Man
Method in brief: as §1

[11] = target: Gal(a1-3)Gal(b1-4)GlcNAc(b1-2)Man(a1-3)[Gal(a1-3)Gal(b1-4)GlcNAc(b1-2)Man(a1-6)]Man(b1-4)GlcNAc(b1-4)GlcNAc
Method in brief: as §1

[12] = target: Gal(a1-3)Gal(b1-4)GlcNAc(b1-3)GalNAc
Method in brief: as §1

[13] = target: Gal(a1-3)Gal(b1-4)GlcNAc(b1-6)GalNAc
Method in brief: as §1

[14] = target: Gal(a1-3)Gal(b1-4)[Fuc(a1-3)]GlcNAc
Method in brief: as §1

[15] = target: Gal(a1-3)Gal(b1-4)[Fuc(a1-3)]GlcNAc(b1-2)Man(a1-3)[Gal(a1-3)Gal(b1-4)[Fuc(a1-3)]GlcNAc(b1-2)Man(a1-6)]Man(b1-4)GlcNAc(b1-4)GlcNAc
Method in brief: as §1

[16] = target: Gal(a1-3)GalNAc
Method in brief: as §1

[17] = target: Gal(a1-3)[Gal(a1-4)]Gal(b1-4)GlcNAc
Method in brief: as §1

[18] = target: Gal(a1-4)Gal(b1-3)GlcNAc(b1-2)Man(a1-3)[Gal(a1-4)Gal(b1-3)GlcNAc(b1-2)Man(a1-6)]Man(b1-4)GlcNAc(b1-4)GlcNAc
Method in brief: as §1

[19] = target: Gal(a1-4)Gal(b1-4)Glc
Method in brief: as §1

[20] = target: Gal(a1-4)Gal(b1-4)GlcNAc
Method in brief: as §1

[21] = target: Gal(a1-4)Gal(b1-4)GlcNAc(b1-2)Man(a1-3)[Gal(a1-4)Gal(b1-4)GlcNAc(b1-2)Man(a1-6)]Man(b1-4)GlcNAc(b1-4)GlcNAc
Method in brief: as §1

[22] = target: Gal(a1-4)Gal(b1-4)GlcNAc(b1-3)Gal(b1-4)Glc
Method in brief: as §1

[23] = target: Gal(a1-4)GlcNAc
Method in brief: as §1

[24] = target: Gal(a1-6)Glc
Method in brief: as §1

[25] = target: Gal(b1-2)Gal
Method in brief: as §1

[26] = target: Gal(b1-3)Gal
Method in brief: as §1

[27] = target: Gal(b1-3)Gal(b1-4)GlcNAc
Method in brief: as §1

[28] = target: Gal(b1-3)GalNAc
Method in brief: as §1

[29] = target: Gal(b1-3)GalNAc(a1-3)[Fuc(a1-2)]Gal(b1-4)Glc
Method in brief: as §1

[30] = target: Gal(b1-3)GalNAc(a1-3)[Fuc(a1-2)]Gal(b1-4)GlcNAc
Method in brief: as §1

[31] = target: Gal(b1-3)GalNAc(b1-3)Gal
Method in brief: as §1

[32] = target: Gal(b1-3)GalNAc(b1-3)Gal(a1-4)Gal(b1-4)Glc
Method in brief: as §1

[33] = target: Gal(b1-3)GalNAc(b1-4)Gal(b1-4)Glc
Method in brief: as §1

[34] = target: Gal(b1-3)GalNAc(b1-4)[Neu5Ac(a2-3)]Gal(b1-4)Glc
Method in brief: as §1

[35] = target: Gal(b1-3)GlcNAc
Method in brief: as §1

[36] = target: Gal(b1-3)GlcNAc(a1-3)Gal(b1-4)GlcNAc
Method in brief: as §1

[37] = target: Gal(b1-3)GlcNAc(a1-6)Gal(b1-4)GlcNAc
Method in brief: as §1

[38] = target: Gal(b1-3)GlcNAc(b1-2)Man
Method in brief: as §1

B1: LFA (Limax flavus) (protein)
chain: MSVLFLAASFLLLASFELVAAQGCPRQDPGDWIVIQRRLNADVNFYRGWADYKHGFGDLRCNFWLGNEKIHQLTSHGRYKLRVEFTFNNKSYFAEYSTFKILGEADKYKLQVGGYSGNAGDALTFHNGMAFSTNDRDNDADSIDCAKVYHGAWWYKTCHESNLNGKWGSKKYGEGLNWKAKTTFTATATSSLLKIKALK
- glycan array binding signal (z-score) [1]: -0.132
- glycan array binding signal (z-score) [2]: 0.06
- glycan array binding signal (z-score) [3]: -0.22
- glycan array binding signal (z-score) [4]: 0.128
- glycan array binding signal (z-score) [5]: 0.016
- glycan array binding signal (z-score) [6]: -0.242
- glycan array binding signal (z-score) [7]: 0.839
- glycan array binding signal (z-score) [8]: 0.013
- glycan array binding signal (z-score) [9]: -0.218
- glycan array binding signal (z-score) [10]: -0.358
- glycan array binding signal (z-score) [11]: -0.074
- glycan array binding signal (z-score) [12]: -0.016
- glycan array binding signal (z-score) [13]: -0.267
- glycan array binding signal (z-score) [14]: -0.153
- glycan array binding signal (z-score) [15]: 0.16
- glycan array binding signal (z-score) [16]: 0.075
- glycan array binding signal (z-score) [17]: -0.047
- glycan array binding signal (z-score) [18]: -0.353
- glycan array binding signal (z-score) [19]: -0.27
- glycan array binding signal (z-score) [20]: -0.295
- glycan array binding signal (z-score) [21]: -0.253
- glycan array binding signal (z-score) [22]: -0.307
- glycan array binding signal (z-score) [23]: -0.3
- glycan array binding signal (z-score) [24]: -0.229
- glycan array binding signal (z-score) [25]: -0.134
- glycan array binding signal (z-score) [26]: -0.302
- glycan array binding signal (z-score) [27]: -0.199
- glycan array binding signal (z-score) [28]: 0.747
- glycan array binding signal (z-score) [29]: -0.301
- glycan array binding signal (z-score) [30]: -0.28
- glycan array binding signal (z-score) [31]: -0.399
- glycan array binding signal (z-score) [32]: -0.197
- glycan array binding signal (z-score) [33]: -0.279
- glycan array binding signal (z-score) [34]: -0.338
- glycan array binding signal (z-score) [35]: -0.322
- glycan array binding signal (z-score) [36]: -0.103
- glycan array binding signal (z-score) [37]: -0.266
- glycan array binding signal (z-score) [38]: -0.244
